About 65 (0.1%) of roughly 45,000 compounds were called active. Calls follow the shape of the dose curve; as a rule, active = well fitted activation curve with a large enough effect; inconclusive = small, poorly fitted or top-dose-only effect; inactive = no such curve, though single readings can be large or run the other way. Some of the results follow.
Biological target: Galactocerebrosidase (Homo sapiens) (UniProt P54803)
Test: A Novel Cell-Based Assay to Identify Small Molecules for B -Galactocerebrosidase; also: 0% is about no effect; nearly all actives have a fitted effect of over 65% in size
Conditions: 145M-Twi-hGALC-G270D cells (Twitcher mouse brain line with human GALC G270D), HMU-beta-Gal fluorescence, 48 h; series mostly up to 57.5 µM; activation: at the top concentration
In short: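 Brain-derived Twitcher mouse 145M-Twi cells stably expressing human GALC-G270D or wild-type GALC, treated live, then residual GALC activity read by fluorescence of HMU-b-Gal substrate (0.1 mM final) in citrate-phosphate buffer pH 5.2 with sodium taurocholate. Signal increase indicates enhancement.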

Sequence of UniProt P54803 (P54803 whole entry, looked up): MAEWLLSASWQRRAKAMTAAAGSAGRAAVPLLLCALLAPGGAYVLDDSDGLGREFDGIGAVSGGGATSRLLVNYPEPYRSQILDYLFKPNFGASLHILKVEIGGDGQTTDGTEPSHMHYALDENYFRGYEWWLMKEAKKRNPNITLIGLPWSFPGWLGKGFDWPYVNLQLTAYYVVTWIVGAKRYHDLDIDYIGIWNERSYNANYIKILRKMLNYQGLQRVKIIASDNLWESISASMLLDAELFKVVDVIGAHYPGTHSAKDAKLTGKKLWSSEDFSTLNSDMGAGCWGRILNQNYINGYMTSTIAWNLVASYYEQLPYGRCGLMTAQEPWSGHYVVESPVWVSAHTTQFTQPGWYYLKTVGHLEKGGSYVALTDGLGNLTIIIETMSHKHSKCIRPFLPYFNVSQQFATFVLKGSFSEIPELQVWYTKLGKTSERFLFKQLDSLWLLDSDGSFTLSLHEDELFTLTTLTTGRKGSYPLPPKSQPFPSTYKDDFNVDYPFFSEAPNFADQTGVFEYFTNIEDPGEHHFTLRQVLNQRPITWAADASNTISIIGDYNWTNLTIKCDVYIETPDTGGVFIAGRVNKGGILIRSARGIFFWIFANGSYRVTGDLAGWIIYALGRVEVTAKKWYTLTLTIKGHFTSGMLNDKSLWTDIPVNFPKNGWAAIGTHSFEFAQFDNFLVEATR

activation, inactive:
Cc1cc(C)c(Cn2c(C3CC(=O)N(c4ccc(F)cc4)C3)nc3ccccc32)c(C)c1 (centres undefined) -18.4%, CC(C)CCN(C(=O)Nc1ccccc1)C(C)c1cccs1 (centres undefined) -5.78%, CCOC(=O)c1ccc(NC(=O)CCn2ccc(C)n2)cc1 -16.6%, COc1cccc(NC(=O)CSc2nc(=O)n(Cc3ccncc3)c3c2CCC3)c1 2.86%, Oc1ccc(NCc2ccccc2OCc2ccccc2F)cc1 -15.3%, CCc1ccc(NC(=O)CSc2nc3ccccc3c(=O)n2CCNC(C)=O)cc1 -15.8%, CC(=O)c1ccc(NC(=O)CCCSc2nc(-c3ccco3)cc(C(F)(F)F)n2)cc1 -3.62%, Cc1c(Cl)cccc1NC(=O)c1ncoc1-c1ccco1 -16.1%, Cc1ccc(NC(=O)C(C)n2nnc3sc4c(c3c2=O)CCCC4)cc1Cl (centres undefined) -13.6%, Cc1nc(-c2ccccc2)sc1CCNC(=O)C(=O)Nc1ccc2c(c1)OCO2 -25.3%, Cc1c(Cl)cccc1NC(=O)c1ccc2snnc2c1 9.33%, CCOC(=O)c1c(C)[nH]c(CCC(=O)NCc2ccccc2Cl)c1C -2.36%, CCOC(=O)c1cccc(Nc2cc(-c3ccccc3)ncn2)c1 -38.1%, CCOc1ccc(OCC)c(NC(=O)C2CCN(c3nnc(-n4cccc4)s3)CC2)c1 -13.3%, COc1ccccc1NC(=O)CCN1CCCCC1 -13%, Cc1cccc(N2CCN(S(=O)(=O)c3ccc4[nH]c5c(c4c3)CCCCC5)CC2)c1C -2%, Cc1cccc(C(=O)NCC(=O)OCc2cc(=O)n3nc(C4CCCCC4)sc3n2)c1 -7.58%, Cc1ccc(N(C)C(=O)C2CCN(S(=O)(=O)c3c(C)noc3/C=C/c3c(C)cc(C)cc3C)CC2)cc1 -4.29%, COc1cccc(OCCSc2nc(C)c(Cc3ccccc3)c(=O)[nH]2)c1 -10.5%, O=P(O)(O)OCC(O)CO (centres undefined) -12.9%, COc1ccc(NC(=O)CCCN2C(=O)CCn3nc(-c4cn(C)c5ccccc45)cc32)cc1OC -2.24%, Cc1ccc(CN2CCSc3ccc(C(=O)NCC(C)c4ccccc4)cc32)cc1 (centres undefined) -11.8%, COc1cc2c(cc1OC)C(COc1ccc3c(C)cc(=O)oc3c1)N(C(=O)c1cc(Cl)ccc1OC)CC2 (centres undefined) 3.89%, CCC(=O)N1c2ccc(S(=O)(=O)NCc3ccc(F)cc3)cc2CC1C (centres undefined) -22.3%, CCN(CC)C(=O)Cn1nnc2sc(-c3ccccc3)cc2c1=O 1.93%, COc1ccccc1C(=O)Nc1cc2c(cc1N1CCCC1)n(C)c(=O)c(=O)n2C -8.98%, COc1cccc(NC(=O)C2=C(C)C(=O)OC23CCN(C(C)=O)CC3)c1 -10.3%, CCN(C(=O)CSc1nc2ccccc2[nH]1)c1ccccc1 -12.8%, Cc1ccc(NC(=O)Cn2ccn(-c3ccccc3)c(=O)c2=O)cc1 -13.2%
